Source: PubChem BioAssay (NCI)
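Following 48 hours of exposure in 96-well plates, responses at five concentrations were used to interpolate endpoints linearly. Abbreviation: GI50, concentration required for 50% inhibition of growth.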 Not every entry of the source has a single result; some have several. This list holds those alone. An entry can have further records. For some of these results: The tests behind the records often covered other concentration ranges, not given here; some values may only mark the edge of a range. For some of these results: Values that stand side by side are repeats across runs, samples, wells, individuals or studies. Records carry a tag for their origin. Letters count within one entry.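 TGI: concentration producing complete growth inhibition.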

Assays:
Assay in all cases: NCI tumour cell line growth inhibition, 48 h
[1] = system: DMS 273 small cell lung
[2] = system: KM20L2 colon
[3] = system: P388/ADR leukemia
[4] = system: SNB-78 CNS
[5] = system: P388 leukemia
[6] = system: SN12K1 renal
[7] = system: HOP-18 NSCLC
[8] = system: DLD-1 colon
[9] = system: DMS 114 small cell lung
[10] = system: LOX IMVI melanoma
[11] = system: M19-MEL melanoma
[12] = system: XF 498 CNS
[13] = system: IGROV1 ovarian
[14] = system: UACC-257 melanoma
[15] = system: K-562 leukemia
[16] = system: HL-60(TB) leukemia
[17] = system: SNB-75 CNS
[18] = system: SK-MEL-5 melanoma

In the case of CO[C@H](C(=O)[C@@H](O)[C@@H](C)O)[C@@H]1Cc2cc3cc(OC4CC(OC5CC(O)C(O)C(C)O5)C(O)C(C)O4)c(C)c(O)c3c(O)c2C(=O)[C@H]1OC1CC(OC2CC(OC3CC(C)(O)C(O)C(C)O3)C(O)C(C)O2)C(O)C(C)O1 (some centres undefined), the TGI [1] is reported as > 1.25 mM [1 test] and 240 nM [mean of 4 tests] and 0.158 nM [mean of 5 tests] and 276 nM [mean of 8 tests], the TGI [2] is reported as > 1.25 mM [1 test] and 521 nM [mean of 4 tests] and 185 µM [mean of 8 tests] and the TGI [3] is reported as > 1.25 mM [1 test] and 14.4 µM [mean of 4 tests] and 38.7 µM [mean of 7 tests]. The TGI [4] was > 1.25 mM [1 test] and 38.8 µM [mean of 7 tests], the TGI [5] was > 1.25 mM [1 test] and 209 nM [mean of 4 tests] and 6.27 µM [mean of 7 tests] and the TGI [6] was 16.9 µM, > 1.25 mM [1 test] and 0.599 nM, 211 µM [mean of 4 tests]. For the same molecule, the TGI [7] was 0.991 nM, 22.1 nM, 259 µM, the TGI [8] was > 1.25 mM [1 test] and 10.2 µM [mean of 4 tests] and 82.2 µM [mean of 9 tests] and the TGI [9] was > 1.25 mM [1 test] and 66.8 nM [mean of 4 tests] and 278 nM [mean of 7 tests]. The TGI [10] was > 1.25 mM [1 test] and 36.2 µM [mean of 11 tests] and 340 nM [mean of 2 tests] and 0.22 nM [mean of 3 tests], the TGI [11] was > 1.25 mM [1 test] and 165 nM [mean of 4 tests] and 0.832 nM [mean of 5 tests] and 851 nM [mean of 9 tests] and the TGI [12] was > 1.25 mM [1 test] and < 13.1 nM [mean of 3 tests] and < 125 nM [mean of 7 tests].
With COc1nc(N)nc2c1ncn2C1OC(CO)C(O)C1O (centres undefined) the GI50 [13] was 38.5 µM and > 5 mM and the GI50 [14] was 2.95 µM and > 5 mM.
In the case of Cc1sc2c(c1C)C(c1ccc(Cl)cc1)=N[C@@H](CC(=O)OC(C)(C)C)c1nnc(C)n1-2, the GI50 [15] is reported as 741 nM [sample A, mean of 2 tests] and 57.3 nM [sample B, 1 test], the TGI [16] is reported as 5.15 µM [sample A, mean of 2 tests] and 485 nM [sample B, mean of 2 tests] and the TGI [17] is reported as 11.1 µM [sample A, mean of 2 tests] and 982 nM [sample B, mean of 2 tests].
For C=C(OC1C(C)=C2C(C1OC(=O)CCCCCCC)C(C)(OC(C)=O)CC(OC(=O)CCC)C1(O)C2OC(=O)C1(C)O)/C(C)=C/C (centres undefined), the TGI [18] was 1.63 nM and 90 nM and the TGI [10] was 3.04 nM and 583 nM.
